Residue numbers refer to the chain shown, from its start. The list shows a part of the results.
T1: RBFOX1 RRM (Homo sapiens, UniProt Q9NWB1 109-208)
T1 sequence: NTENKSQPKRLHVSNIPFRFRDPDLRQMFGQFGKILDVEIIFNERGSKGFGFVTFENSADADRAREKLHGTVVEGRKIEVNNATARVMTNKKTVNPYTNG

B1: UUCAAAG (DNA:RNA)
RNA: GGGAGACCGGAAUUCAGAUUGUCCUUCAAAGUUAAAUCCCGUCGUAGCCACCA
DNA 1: CAATCTGAATTCCGGTCTCCC
DNA 2: TGGTGGCTACGACGGGATT
B2: UGAGUUA (DNA:RNA)
RNA: B1 RNA with U26G, C27A, A28G, A29U, A30U, G31A
DNA 1: CAATCTGAATTCCGGTCTCCC
DNA 2: TGGTGGCTACGACGGGATT
B3: CUCAGGG (DNA:RNA)
RNA: B1 RNA with U25C, A29G, A30G
DNA 1: CAATCTGAATTCCGGTCTCCC
DNA 2: TGGTGGCTACGACGGGATT
B4: CCGUAUC (DNA:RNA)
RNA: B1 RNA with U25C, U26C, C27G, A28U, A30U, G31C
DNA 1: CAATCTGAATTCCGGTCTCCC
DNA 2: TGGTGGCTACGACGGGATT
B5: CUGCGGU (DNA:RNA)
RNA: B1 RNA with U25C, C27G, A28C, A29G, A30G, G31U
DNA 1: CAATCTGAATTCCGGTCTCCC
DNA 2: TGGTGGCTACGACGGGATT
B6: AUAUCUA (DNA:RNA)
RNA: B1 RNA with U25A, C27A, A28U, A29C, A30U, G31A
DNA 1: CAATCTGAATTCCGGTCTCCC
DNA 2: TGGTGGCTACGACGGGATT
B7: AGCCAUU (DNA:RNA)
RNA: B1 RNA with U25A, U26G, A28C, A30U, G31U
DNA 1: CAATCTGAATTCCGGTCTCCC
DNA 2: TGGTGGCTACGACGGGATT
B8: AGUGCCC (DNA:RNA)
RNA: GGGAGACCGGAAUUCAGAUUGUCCAGUGCCCUUAAAUCCCGUCGUAGCCACCA
DNA 1: CAATCTGAATTCCGGTCTCCC
DNA 2: TGGTGGCTACGACGGGATT
B9: CCUAUCU (DNA:RNA)
RNA: B8 RNA with A25C, G26C, G28A, C29U, C31U
DNA 1: CAATCTGAATTCCGGTCTCCC
DNA 2: TGGTGGCTACGACGGGATT
B10: AAGGUUA (DNA:RNA)
RNA: B8 RNA with G26A, U27G, C29U, C30U, C31A
DNA 1: CAATCTGAATTCCGGTCTCCC
DNA 2: TGGTGGCTACGACGGGATT
B11: GAAGUCU (DNA:RNA)
RNA: B8 RNA with A25G, G26A, U27A, C29U, C31U
DNA 1: CAATCTGAATTCCGGTCTCCC
DNA 2: TGGTGGCTACGACGGGATT
B12: AAGCGGC (DNA:RNA)
RNA: B8 RNA with G26A, U27G, G28C, C29G, C30G
DNA 1: CAATCTGAATTCCGGTCTCCC
DNA 2: TGGTGGCTACGACGGGATT
B13: UAUUUAA (DNA:RNA)
RNA: B1 RNA with U26A, C27U, A28U, A29U, G31A
DNA 1: CAATCTGAATTCCGGTCTCCC
DNA 2: TGGTGGCTACGACGGGATT
B14: CAAGGCA (DNA:RNA)
RNA: B8 RNA with A25C, G26A, U27A, C29G, C31A
DNA 1: CAATCTGAATTCCGGTCTCCC
DNA 2: TGGTGGCTACGACGGGATT
B15: UCUCCUC (DNA:RNA)
RNA: B8 RNA with A25U, G26C, G28C, C30U
DNA 1: CAATCTGAATTCCGGTCTCCC
DNA 2: TGGTGGCTACGACGGGATT
B16: ACGCUGU (DNA:RNA)
RNA: B8 RNA with G26C, U27G, G28C, C29U, C30G, C31U
DNA 1: CAATCTGAATTCCGGTCTCCC
DNA 2: TGGTGGCTACGACGGGATT
B17: UUGGGCU (DNA:RNA)
RNA: B8 RNA with A25U, G26U, U27G, C29G, C31U
DNA 1: CAATCTGAATTCCGGTCTCCC
DNA 2: TGGTGGCTACGACGGGATT
B18: CGCUGGU (DNA:RNA)
RNA: B8 RNA with A25C, U27C, G28U, C29G, C30G, C31U
DNA 1: CAATCTGAATTCCGGTCTCCC
DNA 2: TGGTGGCTACGACGGGATT
B19: CGCCGAG (DNA:RNA)
RNA: B1 RNA with U25C, U26G, A28C, A29G
DNA 1: CAATCTGAATTCCGGTCTCCC
DNA 2: TGGTGGCTACGACGGGATT
B20: CCUCGCC (DNA:RNA)
RNA: B8 RNA with A25C, G26C, G28C, C29G
DNA 1: CAATCTGAATTCCGGTCTCCC
DNA 2: TGGTGGCTACGACGGGATT
B21: ACUUGGC (DNA:RNA)
RNA: B8 RNA with G26C, G28U, C29G, C30G
DNA 1: CAATCTGAATTCCGGTCTCCC
DNA 2: TGGTGGCTACGACGGGATT
B22: UUUAUUC (DNA:RNA)
RNA: B1 RNA with C27U, A29U, A30U, G31C
DNA 1: CAATCTGAATTCCGGTCTCCC
DNA 2: TGGTGGCTACGACGGGATT
B23: UCAUCAC (DNA:RNA)
RNA: B8 RNA with A25U, G26C, U27A, G28U, C30A
DNA 1: CAATCTGAATTCCGGTCTCCC
DNA 2: TGGTGGCTACGACGGGATT
B24: GACCGGA (DNA:RNA)
RNA: B1 RNA with U25G, U26A, A28C, A29G, A30G, G31A
DNA 1: CAATCTGAATTCCGGTCTCCC
DNA 2: TGGTGGCTACGACGGGATT
B25: AAGUACU (DNA:RNA)
RNA: B8 RNA with G26A, U27G, G28U, C29A, C31U
DNA 1: CAATCTGAATTCCGGTCTCCC
DNA 2: TGGTGGCTACGACGGGATT
B26: GGUCUUA (DNA:RNA)
RNA: B8 RNA with A25G, G28C, C29U, C30U, C31A
DNA 1: CAATCTGAATTCCGGTCTCCC
DNA 2: TGGTGGCTACGACGGGATT
B27: UCGCAGA (DNA:RNA)
RNA: B1 RNA with U26C, C27G, A28C, A30G, G31A
DNA 1: CAATCTGAATTCCGGTCTCCC
DNA 2: TGGTGGCTACGACGGGATT
B28: GAUGCAA (DNA:RNA)
RNA: B8 RNA with A25G, G26A, C30A, C31A
DNA 1: CAATCTGAATTCCGGTCTCCC
DNA 2: TGGTGGCTACGACGGGATT
B29: GAGAAGA (DNA:RNA)
RNA: B1 RNA with U25G, U26A, C27G, A30G, G31A
DNA 1: CAATCTGAATTCCGGTCTCCC
DNA 2: TGGTGGCTACGACGGGATT
B30: CCACCUG (DNA:RNA)
RNA: B8 RNA with A25C, G26C, U27A, G28C, C30U, C31G
DNA 1: CAATCTGAATTCCGGTCTCCC
DNA 2: TGGTGGCTACGACGGGATT
B31: UUUACGC (DNA:RNA)
RNA: B8 RNA with A25U, G26U, G28A, C30G
DNA 1: CAATCTGAATTCCGGTCTCCC
DNA 2: TGGTGGCTACGACGGGATT

Each binder was assayed against T1, RBFOX1 RRM (assay: EMSA; HiTS-Eq, 1 nM pool, 10 min; buffer printed only for the single-RNA assays: 10 mM Tris pH 7.5, 150 mM NaCl, 3.4 mM EDTA, 0.001% NP-40, 30 C). Details: tags: His6 N-terminal (pET28a); label: 5' 32P.
Method in brief: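 Relative association constants, normalised to the cognate motif, were derived by comparing read counts of each RNA species with those of the control reaction. The RNA sequenced was the free fraction, separated by 8% native PAGE after a 10 min equilibration in 50 µL of 1 nM 5′-radiolabelled RNA (7 randomized nucleotides) with increasing concentrations of purified wild-type or mutant RbFox RRM.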

Row | Binder | binding signal
1 | B1 | 0.00829 KA relative to UGCAUGU
2 | B2 | 0.0158 KA relative to UGCAUGU
3 | B3 | 0.00404 KA relative to UGCAUGU
4 | B4 | 0.00588 KA relative to UGCAUGU
5 | B5 | 0.017 KA relative to UGCAUGU
6 | B6 | 0.00122 KA relative to UGCAUGU
7 | B7 | 0.00149 KA relative to UGCAUGU
8 | B8 | 0.00775 KA relative to UGCAUGU
9 | B9 | 0.00242 KA relative to UGCAUGU
10 | B10 | 0.00344 KA relative to UGCAUGU
11 | B11 | 0.0143 KA relative to UGCAUGU
12 | B12 | 0.00979 KA relative to UGCAUGU
13 | B13 | 0.00757 KA relative to UGCAUGU
14 | B14 | 0.0111 KA relative to UGCAUGU
15 | B15 | 0.00621 KA relative to UGCAUGU
16 | B16 | 0.01 KA relative to UGCAUGU

Row | Binder | binding signal
17 | B17 | 0.0195 KA relative to UGCAUGU
18 | B18 | 0.0211 KA relative to UGCAUGU
19 | B19 | 0.0113 KA relative to UGCAUGU
20 | B20 | 0.00761 KA relative to UGCAUGU
21 | B21 | 0.00926 KA relative to UGCAUGU
22 | B22 | 0.00475 KA relative to UGCAUGU
23 | B23 | 0.000525 KA relative to UGCAUGU
24 | B24 | 0.0036 KA relative to UGCAUGU
25 | B25 | 0.00286 KA relative to UGCAUGU
26 | B26 | 0.00992 KA relative to UGCAUGU
27 | B27 | 0.013 KA relative to UGCAUGU
28 | B28 | 0.0183 KA relative to UGCAUGU
29 | B29 | 0.0152 KA relative to UGCAUGU
30 | B30 | 0.00285 KA relative to UGCAUGU
31 | B31 | 0.0139 KA relative to UGCAUGU
